# Measurements: PubChem BioAssay AID686978 (National Center for Advancing Translational Sciences (NCATS), 2013)
# Where “and” joins values, the source holds several entries; their conditions need not be identical. Identical values can stand only once. The campaign covered roughly 420,000 compounds. About 64,000 (15%) were called active. The inconclusive results got no clear call from the source; some entries with a clear call stand among them for comparison. Calls follow the shape of the dose curve; as a rule, active = well fitted inhibition curve with a large enough effect; inconclusive = small, poorly fitted or top-dose-only effect; inactive = flat fitted curve, though single readings scatter. A potency beside an inconclusive call is a rough fit, not a confirmed value.
# Test: qHTS for Inhibitors of human tyrosyl-DNA phosphodiesterase 1 (TDP1): qHTS in cells in absence of CPT; also: nearly all actives have a fitted effect of over 55% in size
# Settings: DT40 Tdp1-/- hTDP1 cells, no CPT, ATP luminescence, 48 h; activity change, negative = growth inhibition: at 46.2 µM (top of the series) unless noted
# Outline: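 Seeded 400 DT40-hTDP1 cells/well (vehicle DMSO, no 20 nM CPT); pinned compounds; ≥48 hr at 37 °C; CellTiter-Glo luminescence as viability measure.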
# % is scaled to controls: 0 for no effect and ±100 for the full control effect; potency is read from the fitted curve at half-maximal effect; tags tell the direction and shape of the fitted curve.
SMILES,Potency,"activity change, negative = growth inhibition"
CCOC(=O)c1c(NC(=O)CC2Nc3cc(C)c(C)cc3NC2=O)sc(C)c1C (configuration not stated),"inconclusive: 18.4 µM [inhibitor, single point]",
CC(=O)/C(N)=N/Nc1cccc(Cl)c1,"inconclusive: 14.6 µM [inhibitor, single point]",
COc1ccc(S(=O)(=O)NCCSCc2cccs2)cc1,,inactive: -11.7%
Cc1cccc(NC(=O)CNC(=O)c2ccc(S(=O)(=O)NCc3ccco3)cc2)c1C,,inactive: -21%
O=C(c1ccco1)N1CCN(CCOCCOc2cccc3ccccc23)CC1,"inconclusive: 29.1 µM [inhibitor, single point]",
COc1ccc2c(c1)CC=C1C2CCC2(C)C(=O)C(=NO)CC12 (configuration not stated),"inconclusive: 16.4 µM [inhibitor, single point]",
Cc1ccc2nc(NC(=O)CCn3cccc3)sc2c1,"inconclusive: 29.1 µM [inhibitor, single point]",
CCC(=O)Oc1ccc(C(CC)C(CC)c2ccc(OC(=O)CC)cc2)cc1 (configuration not stated),"inconclusive: 29.1 µM [inhibitor, single point]",
COc1ccc(-c2nc(SC(C)C(=O)c3c(N)n(C)c(=O)n(C)c3=O)n[nH]2)cc1 (configuration not stated),"inconclusive: 23.1 µM [inhibitor, single point]",
COc1cc(OC)c(/C=C/c2ccc3ccccc3[n+]2[O-])c(OC)c1,"inconclusive: 35.5 µM [inhibitor, single point]",
COc1cc(NC(=O)Cn2nnc(-c3ccncc3)n2)cc(OC)c1,"inconclusive: 20.6 µM [inhibitor, partial curve]",
Cc1ccc(NC(=O)CCC(=O)OCC(=O)c2ccc(Oc3ccc([N+](=O)[O-])cc3)cc2)cc1,"inconclusive: 32.6 µM [inhibitor, partial curve, poor fit]",
COc1ccc(-c2c/c(=N\c3nc(-c4ccccc4)c(C)s3)c3ccccc3o2)cc1O,active: 4.11 µM,
O=C(Nc1ccccc1N1CCCCC1)c1ccc2nccnc2c1,"inconclusive: 18.4 µM [inhibitor, single point]",
O=C(O)c1ccccc1-c1cccc2nncn12,,inactive: -7.8%
CC[C@]12c3[nH]c4cc(-c5ccco5)ccc4c3CCN1C(=O)[C@@H](CC(=O)NC(C)(C)C)C[C@@H]2C(=O)N1CCN(C(=O)c2ccco2)CC1,active: 14.6 µM,
O=C(N/N=C/c1ccc(OCc2ccccc2)cc1)c1cccs1,,inactive: -15.4%
Cc1ccc(S(=O)(=O)N(Cc2ccccc2)c2ccccn2)cc1[N+](=O)[O-],"inconclusive: 25.9 µM [inhibitor, single point]",
COc1ccc(N(CC(=O)NCCc2ccccc2)C(=O)CCC(=O)Nc2nccs2)cc1,,inconclusive: -33.6% [inhibitor]
CCOC(=O)Cn1nc(C)c(NC(=O)COc2ccc(C)c(C)c2)c1C,"inconclusive: 25.9 µM [inhibitor, single point] and inconclusive: 23.1 µM [inhibitor, single point]",
CN(C)CCCN(C(=O)c1ccc(C(=O)c2ccccc2)cc1)c1nc2ccc(F)cc2s1,"inconclusive: 20.6 µM [inhibitor, single point]",

SMILES,Potency,"activity change, negative = growth inhibition"
CN(C)S(=O)(=O)c1cc(NC(=O)CN2CCc3ccccc32)ccc1Cl,"inconclusive: 25.9 µM [inhibitor, single point]",
CCn1c2ccccc2c2nnc(N3CCN(c4ccc(OC)cc4)CC3)nc21,"inconclusive: 14.6 µM [inhibitor, partial curve, poor fit]",
O=C(O)c1cc(NS(=O)(=O)c2ccc3ccccc3c2)ccc1O,,inactive: -9.31%
Cc1ccc(NC(=O)C2CCN(c3nc4ccccc4nc3C(F)(F)F)CC2)cc1C,"inconclusive: 20.6 µM [inhibitor, partial curve]",
O=C(NCCc1ccccc1)C1CCC(CNc2nc(=S)[nH]c3ccccc23)CC1 (configuration not stated),"inconclusive: 18.4 µM [inhibitor, single point]",
O=C(CSCc1ccc(Cl)cc1)N1CCN(Cc2ccc3c(c2)OCO3)CC1,"inconclusive: 29.1 µM [inhibitor, single point]",
O=C(CCC1CCCCC1)Nc1cccnc1,,inactive: -22.7%
N#Cc1cccc(-c2ccc3ncnc(NC4CCNCC4)c3c2)c1,,inactive: -25.5%
CCOc1ccc(-n2cc(-c3ccccc3)c3c(NCc4ccc(F)cc4)ncnc32)cc1,active: 11.6 µM,
Cc1cc(C)cc(N(CC(=O)NCc2ccco2)C(=O)CCC(=O)Nc2nccs2)c1,"inconclusive: 18.4 µM [inhibitor, single point]",
Cn1ncc2c(NCc3ccco3)ncnc21,,inactive: -1.47%
COc1ccc(CCNC(=O)C2CCN(Cc3nc(-c4ccccc4C)oc3C)CC2)cc1OC,active: 16.4 µM,
COc1ccc(CNS(=O)(=O)c2ccc(-c3ccc(=O)[nH]n3)s2)cc1OC,,inactive: 10.2%
N#CCCSc1ccccc1NC(=O)c1cc(=O)c2ccccc2o1,"inconclusive: 13 µM [inhibitor, partial curve]",
COc1ccc(CCn2c(=N)c(S(=O)(=O)c3ccc(C)cc3)cc3c(=O)n4ccccc4nc32)cc1,,inactive: -19.7%
Cc1cc(C)cc(N(C(=O)c2csnn2)C(C(=O)NC2CCCCC2)c2ccccn2)c1 (configuration not stated),"inconclusive: 23.1 µM [inhibitor, partial curve, poor fit]",
Cc1ccc(NS(=O)(=O)c2ccc(NC(=O)C3CC3)cc2)cc1C,"inconclusive: 11.6 µM [inhibitor, partial curve, poor fit]",
COc1cc(NC(=O)CSc2nnc3c(n2)[nH]c2ccc(S(=O)(=O)NC(C)C)cc23)cc(OC)c1OC,,inactive: 1.31%
Cc1ccc(C)c(NC(=O)CSc2ncc3c(n2)-c2ccccc2N(Cc2ccccc2C)S3(=O)=O)c1,"inconclusive: 20.6 µM [inhibitor, partial curve]",
O=[N+]([O-])c1ccccc1/C=C/C=N/n1c(-c2cc(-c3ccccc3)n[nH]2)n[nH]c1=S,"inconclusive: 32.6 µM [inhibitor, partial curve, poor fit]",
CCN(CC)CCNC(=O)c1ccc(NC(=O)c2ccc(S(=O)(=O)N3CCCCCC3)cc2)cc1,"inconclusive: 25.9 µM [inhibitor, single point]",
